Laboratory results as given in patent US20190062414A1.

Substrate: IIICS isoform of fibronectin (human) (UniProt P02751)
Assay: Biacore (SPR), scFv; set-up not described

- Kd: 262 nM
- koff: 0.048 s⁻¹
- kon: 184000 M⁻¹ s⁻¹
B1: scFv(SW01) (scFv)
scFv: [letters of about 100 residues omitted]NRYIFDYWGQGTLVTVSSGGGGSGGGGSGGGGSSELTQDPAVSVALGQTVRITCQGDSLRSYYASWYQQKPGQAPVLVIYGKNNRPSGIPDRFSGSSSGNTASLTITGAQAEDEADYYCNSSPKAPRPVVFGGGTKLTVLG
